According to patent US6800434B2, “Peptides as NS3-serine protease inhibitors of hepatitis C virus” (priority 2000, dated 2004):
Starred links: 1 amine or outer side, 2 acyl side, 3 side chain; linkers in the order of their positions; H or OH if unused. Non-standard residues stand in square brackets, D forms with d. Residues, ends and D or L forms follow the SMILES beside them. ξ: configuration not given here. *: point of attachment. X30 = COc1ccc(NC(=O)N[C@@H]2C[C@@H](C(=O)[*:2])N([*:1])C2)cc1; X16 = O=C([C@@H]1C[C@@H](CNS(=O)(=O)c2ccccc2)CN1[*:1])[*:2]; Pro(trans-4-Ph) = O=C(O)[C@@H]1C[C@@H](c2ccccc2)CN1; N(2-Aminoethyl)Gly = O=C(CN(CCN[*:3])[*:1])[*:2]; Pro(4,4-SCH2CH2S) = O=C(O)[C@@H]1CC2(CN1)SCCS2; Benzoyl(3-OPh) = O=C(c1cccc(Oc2ccccc2)c1)*; X1 = CCC[C@H](N[*:1])C(=O)C(=O)[*:2]; Hyp = O=C(O)[C@@H]1C[C@@H](O)CN1; X3 = CCCC(N[*:1])C(=O)C(=O)[*:2]; Cha = N[C@@H](CC1CCCCC1)C(=O)O; Chg = N[C@H](C(=O)O)C1CCCCC1; NHPhenethyl = c1ccc(CCN*)cc1; Pip = O=C(O)[C@@H]1CCCCN1; Carboxymethyl = O=C(O)C*; Thz = O=C(O)[C@@H]1CSCN1; ξE = NC(CCC(=O)O)C(=O)O; NH(propargyl) = C#CCN*; ξV = CC(C)C(N)C(=O)O; OtBu = CC(C)(C)O*; NHAllyl = C=CCN*; βAla = NCCC(=O)O; NHiPr = CC(C)N*; OAll = C=CCO*; NHPr = CCCN*; X19 = C#CCO*; OPr = CCCO*

These molecules were tested against Recombinant heterodimeric HCV NS3/NS4A protease (strain 1a) (Hepatitis C virus genotype 1a, UniProt P27958) (assay: biochemical). Details: Ki* Range.
`CCC[C@H](NC(=O)[C@@H]1CCCN1C(=O)[C@H](CO)NC(=O)[C@@H](NC(=O)[C@H](CCC(=O)O)NC(=O)[C@H](CCC(=O)O)NC(C)=O)C(C)C)C(=O)C(=O)NCC(=O)O` [Ac-EEVSP-nV-(CO)-G-OH] (Ac-EEVSP[X1]G-OH) showed a Ki of 1 to 10 µM.
Work on `CCC[C@H](NC(=O)[C@@H]1C[C@@H](c2ccccc2)CN1C(=O)[C@@H](NC(=O)[C@@H](NC(=O)[C@H](CCC(=O)OC(C)(C)C)NC(=O)[C@H](CCC(=O)OC(C)(C)C)NC(C)=O)C(C)C)C1CCCCC1)C(=O)C(=O)NCC(=O)O` [Compound 84] (Ac-E(OtBu)E(OtBu)V[Chg][Pro(trans-4-Ph)][X1]G-OH) yielded a Ki of 0.001 to 0.1 µM.
Work on `C=CCNC(=O)C(=O)C(CCC)NC(=O)[C@@H]1CCCN1C(=O)[C@@H](NC(=O)[C@@H](NC(=O)[C@H](CCC(=O)O)NC(=O)[C@H](CCC(=O)O)NC(C)=O)C(C)C)C(C)C` (some centres unmarked) [Compound 4] (Ac-EEVVP[X3]-NHAllyl) yielded a Ki of 0.101 to 0.999 µM.
`CCCC(NC(=O)[C@@H]1CCCCN1C(=O)[C@@H](NC(=O)[C@@H](NC(=O)[C@H](CCC(=O)O)NC(=O)[C@H](CCC(=O)O)NC(C)=O)C(C)C)C1CCCCC1)C(=O)C(=O)NCC(=O)O` (some centres unmarked) [Compound 79] (Ac-EEV[Chg][Pip][X3]G-OH) gave a Ki of 0.001 to 0.1 µM.
Work on `CCC[C@H](NC(=O)[C@@H]1CCCN1C(=O)[C@@H](NC(=O)[C@@H](NC(=O)[C@H](CCC(=O)O)NC(=O)[C@H](CCC(=O)O)NC(C)=O)C(C)C)C(C)C)C(=O)C(=O)NC(C)C` [Ac-EEVVP-nV-(CO)-iPrAm] (Ac-EEVVP[X1]-NHiPr) yielded a Ki of 1 to 10 µM.
Work on `CCCNC(=O)C(=O)[C@H](CCC)NC(=O)[C@@H]1CCCN1C(=O)[C@@H](NC(=O)[C@@H](NC(=O)[C@H](CCC(=O)O)NC(=O)[C@H](CCC(=O)O)NC(C)=O)C(C)C)C(C)C` [Compound 8] (Ac-EEVVP[X1]-NHPr) yielded a Ki of 0.101 to 0.999 µM.
`CCC[C@H](NC(=O)[C@@H]1C[C@@H](OCC(=O)O)CN1C(=O)[C@@H](NC(=O)[C@@H](NC(=O)[C@H](CCC(=O)O)NC(=O)[C@H](CCC(=O)O)NC(C)=O)C(C)C)C(C)C)C(=O)C(=O)NCC(=O)O` [Ac-EEVV-P(4t-O-2AcOH)-nV-(CO)-G-OH] (Ac-EEVV[Hyp](Carboxymethyl)[X1]G-OH) gave a Ki of 0.001 to 0.1 µM.
Work on `C=CCNC(=O)C(=O)C(CCC)NC(=O)[C@@H]1CC2(CN1C(=O)C(NC(=O)C(NC(=O)C(CCC(=O)O)NC(=O)C(CCC(=O)O)NC(C)=O)C(C)C)C(C)C)SCCS2` (some centres unmarked) [Compound 45] (Ac-[ξE][ξE][ξV][ξV][Pro(4,4-SCH2CH2S)][X3]-NHAllyl) yielded a Ki of 0.001 to 0.1 µM.
`CCC[C@H](NC(=O)[C@@H]1CCCN1C(=O)[C@@H](NC(=O)[C@@H](NC(=O)[C@H](CCC(=O)O)NC(=O)[C@H](CCC(=O)O)NC(C)=O)C(C)C)C(C)C)C(=O)C(=O)NCCC(=O)OCC` [Compound 27] (Ac-EEVVP[X1][βAla]-OEt) gave a Ki of 0.001 to 0.1 µM.
`C=CCOC(=O)CNC(=O)C(=O)C(CCC)NC(=O)[C@@H]1CCCN1C(=O)[C@H](CC1CCCCC1)NC(=O)[C@@H](NC(=O)[C@H](CCC(=O)OC(C)(C)C)NC(=O)[C@H](CCC(=O)OC(C)(C)C)NC(C)=O)C(C)C` (some centres unmarked) [Compound 74] (Ac-E(OtBu)E(OtBu)V[Cha]P[X3]G-OAll) was tested, and the Ki was 1 to 10 µM.
`C=CCNC(=O)C(=O)C(CCC)NC(=O)[C@@H]1CSCN1C(=O)C(NC(=O)C(NC(=O)C(CCC(=O)OC(C)(C)C)NC(=O)C(CCC(=O)OC(C)(C)C)NC(C)=O)C(C)C)C(C)C` (some centres unmarked) [Compound 51] (Ac-[ξE](OtBu)[ξE](OtBu)[ξV][ξV][Thz][X3]-NHAllyl) was tested, and the Ki was 0.101 to 0.999 µM.
Work on `CCCOC(=O)CNC(=O)C(=O)C(CCC)NC(=O)[C@@H]1CCCCN1C(=O)[C@@H](NC(=O)[C@@H](NC(=O)[C@H](CCC(=O)OC(C)(C)C)NC(=O)[C@H](CCC(=O)OC(C)(C)C)NC(C)=O)C(C)C)C1CCCCC1` (some centres unmarked) [Compound 77] (Ac-E(OtBu)E(OtBu)V[Chg][Pip][X3]G-OPr) yielded a Ki of 1 to 10 µM.
In the case of `C#CCOC(=O)CNC(=O)C(=O)[C@H](CCC)NC(=O)[C@@H]1CCCN1C(=O)[C@@H](NC(=O)[C@@H](NC(=O)[C@H](CCC(=O)OC(C)(C)C)NC(=O)[C@H](CCC(=O)OC(C)(C)C)NC(C)=O)C(C)C)C(C)C` [Compound 14] (Ac-E(OtBu)E(OtBu)VVP[X1]G-X19), the Ki is reported as 0.101 to 0.999 µM.
In the case of `C#CCNC(=O)CNC(=O)C(=O)[C@H](CCC)NC(=O)[C@@H]1CCCN1C(=O)[C@@H](NC(=O)[C@@H](NC(=O)[C@H](CCC(=O)O)NC(=O)[C@H](CCC(=O)O)NC(C)=O)C(C)C)C(C)C` [Ac-EEVVP-nV-(CO)-G-propynylamide] (Ac-EEVVP[X1]G-{NH(propargyl)}), the Ki is reported as 1 to 10 µM.
For `CCC[C@H](NC(=O)[C@@H]1CCCN1C(=O)[C@@H](NC(=O)[C@@H](NC(=O)[C@H](CCC(=O)O)NC(=O)[C@H](CCC(=O)O)NC(C)=O)C(C)C)C(C)C)C(=O)C(=O)NCC(=O)OC(C)(C)C` [Ac-EEVVP-nV-(CO)-G-OtBu] (Ac-EEVVP[X1]G-OtBu), the Ki was 0.101 to 0.999 µM.
In the case of `CCC[C@H](NC(=O)[C@@H]1C[C@@H](CNS(=O)(=O)c2ccccc2)CN1C(=O)[C@@H](NC(=O)[C@@H](NC(=O)[C@H](CCC(=O)O)NC(=O)[C@H](CCC(=O)O)NC(C)=O)C(C)C)C(C)C)C(=O)C(=O)NCC(=O)O` [Ac-EEVV-P(4t-MeNHSO2Ph)-nV-(CO)-G-OH] (Ac-EEVV[X16][X1]G-OH), the Ki is reported as 0.001 to 0.1 µM.
Work on `CCCC(NC(=O)[C@@H]1CCCN1C(=O)[C@H](CC(C)C)NC(=O)[C@@H](NC(=O)[C@H](CCC(=O)O)NC(=O)[C@H](CCC(=O)O)NC(C)=O)C(C)C)C(=O)C(=O)NCC(=O)O` (some centres unmarked) [Ac-EEVLP-nV-(CO)-G-OH] (Ac-EEVLP[X3]G-OH) yielded a Ki of 0.101 to 0.999 µM.
`CCC[C@H](NC(=O)CN(CCNC(=O)c1cccc(Oc2ccccc2)c1)C(=O)[C@@H](NC(=O)[C@@H](NC(=O)[C@H](CCC(=O)O)NC(=O)[C@H](CCC(=O)O)NC(C)=O)C(C)C)C(C)C)C(=O)C(=O)NCC(=O)O` [Ac-EEVV-G(N-Et(NHBzl(3-OPh)))-nV-(CO)-G-OH] (Ac-EEVV[N(2-Aminoethyl)Gly](Benzoyl(3-OPh))[X1]G-OH) showed a Ki of 0.001 to 0.1 µM.
In the case of `CCC[C@H](NC(=O)[C@H](CSC)NC(=O)[C@@H](NC(=O)[C@@H](NC(=O)[C@H](CCC(=O)O)NC(=O)[C@H](CCC(=O)O)NC(C)=O)C(C)C)C(C)C)C(=O)C(=O)NCC(=O)O` [Ac-EEVV-C(Me)-nV-(CO)-G-OH] (Ac-EEVVC(Me)[X1]G-OH), the Ki is reported as 0.001 to 0.1 µM.
`CCC[C@H](NC(=O)[C@@H]1C[C@@H](NC(=O)Nc2ccc(OC)cc2)CN1C(=O)[C@@H](NC(=O)[C@@H](NC(=O)[C@H](CCC(=O)O)NC(=O)[C@H](CCC(=O)O)NC(C)=O)C(C)C)C(C)C)C(=O)C(=O)NCC(=O)O` [Ac-EEVV-P(4t-UreaPh(4-OMe))-nV-(CO)-G-OH] (Ac-EEVV[X30][X1]G-OH) gave a Ki of 0.001 to 0.1 µM.
`CCCC(C(=O)C(=O)NCC(=O)O)N1CC[C@H](NC(=O)[C@@H](NC(=O)[C@@H](NC(=O)[C@H](CCC(=O)OC(C)(C)C)NC(=O)[C@H](CCC(=O)OC(C)(C)C)NC(C)=O)C(C)C)C(C)C)C1=O` (some centres unmarked) [Compound 46] was tested, and the Ki was 1 to 10 µM.
Work on `CCC[C@H](NC(=O)[C@H](CC(=O)O)NC(=O)[C@@H](NC(=O)[C@@H](NC(=O)[C@H](CCC(=O)O)NC(=O)[C@H](CCC(=O)O)NC(C)=O)C(C)C)C(C)C)C(=O)C(=O)NCC(=O)O` [Ac-EEVVD-nV-(CO)-G-OH] (Ac-EEVVD[X1]G-OH) yielded a Ki of 0.101 to 0.999 µM.
For `CCC[C@H](NC(=O)[C@@H]1CCCN1C(=O)[C@@H](NC(=O)[C@@H](NC(=O)[C@H](CCC(=O)O)NC(=O)[C@H](CCC(=O)O)NC(C)=O)C(C)C)C(C)C)C(=O)C(=O)NCC(=O)NCCc1ccccc1` [Ac-EEVVP-nV-(CO)-G-2PhEtAm] (Ac-EEVVP[X1]G-NHPhenethyl), the Ki was 1 to 10 µM.
